Assay results from the supplement of paper PMC8728848.
Some of the results follow.

Legend:
Test in all cases: glycan array binding signal (z-score within array); higher = stronger binding
Settings in all cases: glycan notation: IUPAC condensed, linker removed; mutation: E227A
Gal(a1-3)Gal(b1-4)GlcNAc = target: Gal(a1-3)Gal(b1-4)GlcNAc
Summary of the method: (§1)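 Columns mapping to the same glycan were averaged after glycan names were converted to IUPAC-condensed notation. The data come from 3228 arrays in the Consortium for Functional Glycomics database, limited to those with an available protein sequence. Binding is reported as a within-array Z-score averaged across arrays of one protein sequence and across linkers.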

[1] = target: Gal(a1-3)Gal(b1-4)GlcNAc(b1-2)Man
Summary of the method: as §1

[2] = target: Gal(a1-3)Gal(b1-4)GlcNAc(b1-2)Man(a1-3)[Gal(a1-3)Gal(b1-4)GlcNAc(b1-2)Man(a1-6)]Man(b1-4)GlcNAc(b1-4)GlcNAc
Summary of the method: as §1

[3] = target: Gal(a1-3)Gal(b1-4)GlcNAc(b1-3)GalNAc
Summary of the method: as §1

[4] = target: Gal(a1-3)Gal(b1-4)GlcNAc(b1-6)GalNAc
Summary of the method: as §1

[5] = target: Gal(a1-3)Gal(b1-4)[Fuc(a1-3)]GlcNAc
Summary of the method: as §1

[6] = target: Gal(a1-3)Gal(b1-4)[Fuc(a1-3)]GlcNAc(b1-2)Man(a1-3)[Gal(a1-3)Gal(b1-4)[Fuc(a1-3)]GlcNAc(b1-2)Man(a1-6)]Man(b1-4)GlcNAc(b1-4)GlcNAc
Summary of the method: as §1

Gal(a1-3)GalNAc = target: Gal(a1-3)GalNAc
Summary of the method: as §1

[7] = target: Gal(a1-3)[Gal(a1-4)]Gal(b1-4)GlcNAc
Summary of the method: as §1

[8] = target: Gal(a1-4)Gal(b1-3)GlcNAc(b1-2)Man(a1-3)[Gal(a1-4)Gal(b1-3)GlcNAc(b1-2)Man(a1-6)]Man(b1-4)GlcNAc(b1-4)GlcNAc
Summary of the method: as §1

Gal(a1-4)Gal(b1-4)Glc = target: Gal(a1-4)Gal(b1-4)Glc
Summary of the method: as §1

Gal(a1-4)Gal(b1-4)GlcNAc = target: Gal(a1-4)Gal(b1-4)GlcNAc
Summary of the method: as §1

[9] = target: Gal(a1-4)Gal(b1-4)GlcNAc(b1-2)Man(a1-3)[Gal(a1-4)Gal(b1-4)GlcNAc(b1-2)Man(a1-6)]Man(b1-4)GlcNAc(b1-4)GlcNAc
Summary of the method: as §1

[10] = target: Gal(a1-4)Gal(b1-4)GlcNAc(b1-3)Gal(b1-4)Glc
Summary of the method: as §1

Gal(a1-4)GlcNAc = target: Gal(a1-4)GlcNAc
Summary of the method: as §1

Gal(a1-6)Glc = target: Gal(a1-6)Glc
Summary of the method: as §1

Gal(b1-2)Gal = target: Gal(b1-2)Gal
Summary of the method: as §1

Gal(b1-3)Gal = target: Gal(b1-3)Gal
Summary of the method: as §1

Gal(b1-3)Gal(b1-4)GlcNAc = target: Gal(b1-3)Gal(b1-4)GlcNAc
Summary of the method: as §1

Gal(b1-3)GalNAc = target: Gal(b1-3)GalNAc
Summary of the method: as §1

[11] = target: Gal(b1-3)GalNAc(a1-3)[Fuc(a1-2)]Gal(b1-4)Glc
Summary of the method: as §1

[12] = target: Gal(b1-3)GalNAc(a1-3)[Fuc(a1-2)]Gal(b1-4)GlcNAc
Summary of the method: as §1

Gal(b1-3)GalNAc(b1-3)Gal = target: Gal(b1-3)GalNAc(b1-3)Gal
Summary of the method: as §1

[13] = target: Gal(b1-3)GalNAc(b1-3)Gal(a1-4)Gal(b1-4)Glc
Summary of the method: as §1

[14] = target: Gal(b1-3)GalNAc(b1-4)Gal(b1-4)Glc
Summary of the method: as §1

[15] = target: Gal(b1-3)GalNAc(b1-4)[Neu5Ac(a2-3)]Gal(b1-4)Glc
Summary of the method: as §1

Gal(b1-3)GlcNAc = target: Gal(b1-3)GlcNAc
Summary of the method: as §1

[16] = target: Gal(b1-3)GlcNAc(a1-3)Gal(b1-4)GlcNAc
Summary of the method: as §1

[17] = target: Gal(b1-3)GlcNAc(a1-6)Gal(b1-4)GlcNAc
Summary of the method: as §1

Gal(b1-3)GlcNAc(b1-2)Man = target: Gal(b1-3)GlcNAc(b1-2)Man
Summary of the method: as §1

B1: Epa1-NP-mutant-E227A (Candida glabrata), Q6VBJ0 (protein)
chain: MILNPALFLNKCVCIYTTLILLLLTNGGYATSSNDISLASKDPTTFPLGCSPDITTPKKGLSMELYSYDFRKKGSYPCWDAAYLDPNYPRTGYKSHRLLAKVDGVTGNINFYYHATKGCTPQLGHLPASYNYPKPLTMTNFTMLLYGYFRPKVTGFHTFTISADDLLFVNFGAGNAFDCCRRDSSADHFGNYQAYAIWGSKTAKDELTVHLDAGVYYPIRLFYNNRAYDGALSFTFKTESNENTVSDFSEYFFSLDDTEEGCPGLISYDSSCASVKTSKIIGIDYHTETPNENLVPITKTIYHLGIPCTGTTTTPLCGSGFYDPLANKCVTINTSSTSSVTKTTSHTTSKEVSFHSSISSQKTLIPKSIPSPYGPIKSQSIPTEMETSSEISSSEYAFSDVISTPSHSPYTKKHSSLNSSSYTSTVIHSLTSYSISQGIFSTSLSEQNITSKSSTDKFSTATSMSNNITQSSIIISQFSTNNENYTTTSMHTSSDKISTETLNNSISTTTSILFSNSSTILKNNTTIISSDKDTHYHPVNPTIVCSTNKTEIICASITQPSISNSNNHWSSSVLKFNSTTVRSTLPSSAGSNETSINVPFSSSTESNTSTSSTSTSNSKMVRSTLPSSAGSNETSISVPFSSSTESNTSTSSTSTSNSKMVRSTLPSSAGSNETSINVPFSSSTESNTSTSSTSTSNSKTVRSTPFSSAGIIMTSLSQRNNKSASSYASSNSKCYNTADSCRKVHSTPSYLLTSSYTSEGVDYDCSLVSTKLKINDTNCVNNKHTTKSCLKTSVTTTIPTLEIKTARKSSSNTIGLHSYPTSSPNKSISSAPIIGYISSFKTIKTASPSYQTSDLTTITTITSLNNPGSTAVENTHESNDKSRKTSSNDISSKHSVIKETKDAVESSNKSHQTNTLKCSSIIIASSSHNSYESLGGTTLTLTLSKVYSPQNNDTLPFLEISEVNPSRTVLPESSKMMQYLTSTEERNKTARNTIATNIVSISTFHFEGEGNAIRMGYTQLLLMLIGIIVMNIGT
**Q.** B1 was tested. Which “glycan array binding signal (z-score)” value (Gal(a1-3)Gal(b1-4)GlcNAc) did it give?
**A.** The value was -0.211.

**Q.** What about the “glycan array binding signal (z-score)” value [1] of the same binder?
**A.** The value was -0.219.

**Q.** What about the “glycan array binding signal (z-score)” value [2] of the same binder?
**A.** Its value is -0.188.

**Q.** What about the “glycan array binding signal (z-score)” value [3] of the same binder?
**A.** The value was -0.211.

**Q.** And the “glycan array binding signal (z-score)” value [4]?
**A.** The value was -0.203.

**Q.** And the “glycan array binding signal (z-score)” value [5]?
**A.** Its value is -0.144.

**Q.** What about the “glycan array binding signal (z-score)” value [6] of the same binder?
**A.** The value was -0.164.

**Q.** And the “glycan array binding signal (z-score)” value (Gal(a1-3)GalNAc)?
**A.** The value was -0.191.

**Q.** What about the “glycan array binding signal (z-score)” value [7] of the same binder?
**A.** The value was -0.187.

**Q.** And the “glycan array binding signal (z-score)” value [8]?
**A.** Its value is -0.192.

**Q.** And the “glycan array binding signal (z-score)” value (Gal(a1-4)Gal(b1-4)Glc)?
**A.** The value was -0.214.

**Q.** What about the “glycan array binding signal (z-score)” value (Gal(a1-4)Gal(b1-4)GlcNAc) of the same binder?
**A.** Its value is -0.17.

**Q.** And the “glycan array binding signal (z-score)” value [9]?
**A.** Its value is -0.176.

**Q.** And the “glycan array binding signal (z-score)” value [10]?
**A.** Its value is -0.205.

**Q.** And the “glycan array binding signal (z-score)” value (Gal(a1-4)GlcNAc)?
**A.** Its value is -0.091.

**Q.** And the “glycan array binding signal (z-score)” value (Gal(a1-6)Glc)?
**A.** Its value is -0.062.

**Q.** And the “glycan array binding signal (z-score)” value (Gal(b1-2)Gal)?
**A.** The value was -0.041.

**Q.** And the “glycan array binding signal (z-score)” value (Gal(b1-3)Gal)?
**A.** Its value is 0.926.

**Q.** And the “glycan array binding signal (z-score)” value (Gal(b1-3)Gal(b1-4)GlcNAc)?
**A.** Its value is 2.03.

**Q.** What about the “glycan array binding signal (z-score)” value (Gal(b1-3)GalNAc) of the same binder?
**A.** The value was 1.28.

**Q.** And the “glycan array binding signal (z-score)” value [11]?
**A.** Its value is 0.456.

**Q.** And the “glycan array binding signal (z-score)” value [12]?
**A.** Its value is 1.05.

**Q.** And the “glycan array binding signal (z-score)” value (Gal(b1-3)GalNAc(b1-3)Gal)?
**A.** The value was 0.925.

**Q.** And the “glycan array binding signal (z-score)” value [13]?
**A.** The value was 0.447.

**Q.** And the “glycan array binding signal (z-score)” value [14]?
**A.** The value was 3.42.

**Q.** What about the “glycan array binding signal (z-score)” value [15] of the same binder?
**A.** Its value is 1.23.

**Q.** What about the “glycan array binding signal (z-score)” value (Gal(b1-3)GlcNAc) of the same binder?
**A.** The value was 0.369.

**Q.** What about the “glycan array binding signal (z-score)” value [16] of the same binder?
**A.** Its value is -0.187.

**Q.** What about the “glycan array binding signal (z-score)” value [17] of the same binder?
**A.** Its value is -0.057.

**Q.** And the “glycan array binding signal (z-score)” value (Gal(b1-3)GlcNAc(b1-2)Man)?
**A.** Its value is 0.122.
